# According to FireProtDB (doi:10.1093/oxfordjournals.jbchem.a124999):
# Details: Gallus gallus; pH 5.5; 35 °C; GdnHCl; Fluorescence; acetate 0.1 M; reversible: yes
substance,measurement,value
Lysozyme C wild type (letters omitted),denaturant m value,2.7 kcal/mol/M
same,denaturant midpoint (higher = more stable),3.62 M
same,unfolding free energy,9.8 kcal/mol
